In paper PMC12529666:
Some of the results follow. At the low end of the ranking the order means little.

Biological target: AGO2 WT (phosphosite mutant background) S387D + S824A + S828D + S831D + S834A (UniProt Q9UKV8)
Test: RNA Bind-n-Seq (nitrocellulose filter binding and sequencing)
Conditions: constant regions annealed to DNA blockers; guide miR-122 5' phosphate; 30 mM Tris pH 8.0, 100 mM potassium acetate, 2 mM magnesium acetate, 0.5 mM TCEP, 0.005% NP-40, 0.01 mg/ml yeast tRNA; 3 nM AGO2-miR-122, 100 nM RNA library …; high values mean tight binding

| Sequence | binding signal (fold enrichment over input) |
| --- | --- |
| GAGUUCUACAGUCCGACGAUCCCAACACACCCUACACCUGGAAUUCUCGGGUGCCAA / UGGAGUGUGACAAUGGUGUUUG / GATCGTCGGACTGTAGAACTC / TTGGCACCCGAGAATTCCA | 0.142 |
| GAGUUCUACAGUCCGACGAUCCCAACACACUUUGCACCUGGAAUUCUCGGGUGCCAA / UGGAGUGUGACAAUGGUGUUUG / GATCGTCGGACTGTAGAACTC / TTGGCACCCGAGAATTCCA | 0.0944 |
| GAGUUCUACAGUCCGACGAUCCCAACACGUCCUACACCUGGAAUUCUCGGGUGCCAA / UGGAGUGUGACAAUGGUGUUUG / GATCGTCGGACTGTAGAACTC / TTGGCACCCGAGAATTCCA | 0.106 |
| GAGUUCUACAGUCCGACGAUCCCAACAUGCUCUACACCUGGAAUUCUCGGGUGCCAA / UGGAGUGUGACAAUGGUGUUUG / GATCGTCGGACTGTAGAACTC / TTGGCACCCGAGAATTCCA | 0.0984 |
| GAGUUCUACAGUCCGACGAUCCCAACGUGCUCCGCACCUGGAAUUCUCGGGUGCCAA / UGGAGUGUGACAAUGGUGUUUG / GATCGTCGGACTGTAGAACTC / TTGGCACCCGAGAATTCCA | 0.149 |
| GAGUUCUACAGUCCGACGAUCCCAACGUAUCUCACACCUGGAAUUCUCGGGUGCCAA / UGGAGUGUGACAAUGGUGUUUG / GATCGTCGGACTGTAGAACTC / TTGGCACCCGAGAATTCCA | 0.141 |
| GAGUUCUACAGUCCGACGAUCCCAACAUAUCUUGCACCUGGAAUUCUCGGGUGCCAA / UGGAGUGUGACAAUGGUGUUUG / GATCGTCGGACTGTAGAACTC / TTGGCACCCGAGAATTCCA | 0.099 |
| GAGUUCUACAGUCCGACGAUCCCAACACAUCCCACACCUGGAAUUCUCGGGUGCCAA / UGGAGUGUGACAAUGGUGUUUG / GATCGTCGGACTGTAGAACTC / TTGGCACCCGAGAATTCCA | 0.154 |
| GAGUUCUACAGUCCGACGAUCCCAACAUGUUUCGCACCUGGAAUUCUCGGGUGCCAA / UGGAGUGUGACAAUGGUGUUUG / GATCGTCGGACTGTAGAACTC / TTGGCACCCGAGAATTCCA | 0.0865 |
| GAGUUCUACAGUCCGACGAUCCCAACAUACUCCGCACCUGGAAUUCUCGGGUGCCAA / UGGAGUGUGACAAUGGUGUUUG / GATCGTCGGACTGTAGAACTC / TTGGCACCCGAGAATTCCA | 0.401 |
| GAGUUCUACAGUCCGACGAUCCCAACAUGCCUCACACCUGGAAUUCUCGGGUGCCAA / UGGAGUGUGACAAUGGUGUUUG / GATCGTCGGACTGTAGAACTC / TTGGCACCCGAGAATTCCA | 0.127 |
| GAGUUCUACAGUCCGACGAUCCCAACGCGUCCCGCACCUGGAAUUCUCGGGUGCCAA / UGGAGUGUGACAAUGGUGUUUG / GATCGTCGGACTGTAGAACTC / TTGGCACCCGAGAATTCCA | 0.105 |
| GAGUUCUACAGUCCGACGAUCCCAACAUGCCUCGCACCUGGAAUUCUCGGGUGCCAA / UGGAGUGUGACAAUGGUGUUUG / GATCGTCGGACTGTAGAACTC / TTGGCACCCGAGAATTCCA | 0.0832 |
| GAGUUCUACAGUCCGACGAUCCCAACGUACUCUACACCUGGAAUUCUCGGGUGCCAA / UGGAGUGUGACAAUGGUGUUUG / GATCGTCGGACTGTAGAACTC / TTGGCACCCGAGAATTCCA | 0.106 |
| GAGUUCUACAGUCCGACGAUCCCAACACACCCCGCACCUGGAAUUCUCGGGUGCCAA / UGGAGUGUGACAAUGGUGUUUG / GATCGTCGGACTGTAGAACTC / TTGGCACCCGAGAATTCCA | 0.152 |
| GAGUUCUACAGUCCGACGAUCCCAACACACUCCGCACCUGGAAUUCUCGGGUGCCAA / UGGAGUGUGACAAUGGUGUUUG / GATCGTCGGACTGTAGAACTC / TTGGCACCCGAGAATTCCA | 154 |
| GAGUUCUACAGUCCGACGAUCCCAACAUACCUUACACCUGGAAUUCUCGGGUGCCAA / UGGAGUGUGACAAUGGUGUUUG / GATCGTCGGACTGTAGAACTC / TTGGCACCCGAGAATTCCA | 0.108 |
